Test results reported in publication PMC9869975, “The β2-adrenergic receptor in the apical membrane of intestinal enterocytes senses sugars to stimulate glucose uptake from the gut” (Frontiers in Cell and Developmental Biology, 2023).

Columns and labels:
[1] = target: T1, β2-adrenergic receptor (β2-AR) (Homo sapiens, UniProt P07550); test: STD-NMR (STDD against membranes without recombinant β2-AR), […] glucose; parameters: gene ADRB2; membranes of Flp-In-293 cells stably transfected with human ADRB2 and GNA15
[2] = target: T1, β2-adrenergic receptor (β2-AR); test: inhibition of calcium response to […] epinephrine in ADRB2/GNA15 Flp-In-293 cells; format: cell-based; parameters: gene ADRB2
[3] = target: T1, β2-adrenergic receptor (β2-AR); test: dose-response of calcium signal, blocked by ICI […]; format: cell-based; parameters: gene ADRB2

OC[C@H]1OC(O)[C@H](O)[C@@H](O)[C@@H]1O (stereo partly drawn) [glucose]
STD-NMR (STDD against membranes without recombinant β2-AR), 10 mM glucose [1]: The difference STDD spectrum provides clear evidence for direct binding of glucose to the β 2-AR

CC(C)(C)NCC(O)COc1cccc2[nH]cc(CC(N)=O)c12 (stereo not drawn) [CD3-403]
IC50 [2]: 46 nM

OC[C@H]1O[C@H](O[C@H]2[C@H](O)[C@@H](O)[C@@H](O[C@H]3[C@H](O)[C@@H](O)C(O)O[C@@H]3CO)O[C@@H]2CO)[C@H](O)[C@@H](O)[C@@H]1O (stereo partly drawn) [maltotriose]
EC50 [3]: 10 mM
